Results published in US7105647 (WISCONSIN ALUMNI RESEARCH FOUNDATION, dated 2006).

Columns and labels:
[1] = target: T1, AH receptor nuclear translocator (ARNT), full length (human, UniProt P27540 1-789); test: yeast two-hybrid, Galacto-Light lacZ assay
T1 construct: Full length: in vitro translated, expressed in yeast (PL574) or transfected; Endogenous ARNT in the Hep3B experiment; also called huARNT; hARNT
Source text: (§1) This plasmid was designated PL371, and subsequently was digested with NotI and XhoI, this fragment cloned into the corresponding sites of pSGBCU11. This clone was designated PL574. The LexAMOP fusion protein constructs were cotransformed with a yeast expression vector containing the full length AHR or ARNT into L40, a yeast strain containing integrated lacZ and HIS3 reporter genes. As controls, LexAAHR and LexAARNT were cotransformed with AHR and ARNT. The strength of interaction was visually characterized by X-Gal (5-bromo-4-chloro-3-indolyl-(-D-galactoside) plate assays, performed after three days growth on selective media (Bohen et al, Proc. Natl. Acad. Sci. USA 90: 11424–11428, 1993). To provide quantitation of the interaction strength, multiple colonies from yeast harboring each bHLH-PAS combination colonies were grown overnight in liquid media. Liquid cultures were grown for 5 hours, and assayed for lacZ activity using the Galacto-Light chemiluminescence reporter system (Tropix, Bedford, Mass.). To determine the effect of AHR agonists on these interactions, yeast were also grown on plates or in liquid culture with and without 1 μM βNF (Carver et al., J. Biol. Chem. 269: 30109–30112, 1994).
(§2) 2. Interaction of MOPs with the AHR and ARNT in vivo; Yeast two-hybrid experiments. […]

[2] = target: T2, human aryl hydrocarbon receptor (AHR), full length (human, UniProt P35869 1-848); test: yeast two-hybrid, lacZ reporter, with and without 1 µM βNF
T2 construct: Full length in yeast (PRSAHR) and in the Hsp90 co-IP (huAHR); also called huAHR; Ah receptor
T2 sequence (looked up): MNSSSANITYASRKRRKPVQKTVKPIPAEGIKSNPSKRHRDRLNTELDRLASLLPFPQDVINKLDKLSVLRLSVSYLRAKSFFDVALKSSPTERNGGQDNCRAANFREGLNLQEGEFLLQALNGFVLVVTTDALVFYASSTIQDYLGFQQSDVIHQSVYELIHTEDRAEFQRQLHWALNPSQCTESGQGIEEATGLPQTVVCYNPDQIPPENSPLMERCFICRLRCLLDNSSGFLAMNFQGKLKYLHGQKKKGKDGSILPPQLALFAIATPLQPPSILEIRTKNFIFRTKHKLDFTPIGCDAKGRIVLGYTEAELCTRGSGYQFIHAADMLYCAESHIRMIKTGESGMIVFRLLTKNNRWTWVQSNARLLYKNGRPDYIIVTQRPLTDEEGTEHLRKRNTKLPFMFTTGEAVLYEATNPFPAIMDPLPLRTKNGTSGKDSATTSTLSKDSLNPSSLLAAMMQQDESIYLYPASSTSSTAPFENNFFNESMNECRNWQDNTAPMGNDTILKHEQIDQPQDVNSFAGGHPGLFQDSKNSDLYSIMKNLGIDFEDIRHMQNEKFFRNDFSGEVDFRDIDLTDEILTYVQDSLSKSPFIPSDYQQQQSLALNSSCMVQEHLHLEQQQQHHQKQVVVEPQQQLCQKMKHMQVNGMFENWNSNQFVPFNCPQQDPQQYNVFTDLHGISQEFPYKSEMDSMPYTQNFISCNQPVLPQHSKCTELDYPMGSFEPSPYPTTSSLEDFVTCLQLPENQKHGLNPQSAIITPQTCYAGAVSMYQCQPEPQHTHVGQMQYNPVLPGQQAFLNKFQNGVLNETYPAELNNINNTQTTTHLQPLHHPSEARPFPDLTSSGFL
Source text: as §1, §2

T1 sequence (P27540 whole entry): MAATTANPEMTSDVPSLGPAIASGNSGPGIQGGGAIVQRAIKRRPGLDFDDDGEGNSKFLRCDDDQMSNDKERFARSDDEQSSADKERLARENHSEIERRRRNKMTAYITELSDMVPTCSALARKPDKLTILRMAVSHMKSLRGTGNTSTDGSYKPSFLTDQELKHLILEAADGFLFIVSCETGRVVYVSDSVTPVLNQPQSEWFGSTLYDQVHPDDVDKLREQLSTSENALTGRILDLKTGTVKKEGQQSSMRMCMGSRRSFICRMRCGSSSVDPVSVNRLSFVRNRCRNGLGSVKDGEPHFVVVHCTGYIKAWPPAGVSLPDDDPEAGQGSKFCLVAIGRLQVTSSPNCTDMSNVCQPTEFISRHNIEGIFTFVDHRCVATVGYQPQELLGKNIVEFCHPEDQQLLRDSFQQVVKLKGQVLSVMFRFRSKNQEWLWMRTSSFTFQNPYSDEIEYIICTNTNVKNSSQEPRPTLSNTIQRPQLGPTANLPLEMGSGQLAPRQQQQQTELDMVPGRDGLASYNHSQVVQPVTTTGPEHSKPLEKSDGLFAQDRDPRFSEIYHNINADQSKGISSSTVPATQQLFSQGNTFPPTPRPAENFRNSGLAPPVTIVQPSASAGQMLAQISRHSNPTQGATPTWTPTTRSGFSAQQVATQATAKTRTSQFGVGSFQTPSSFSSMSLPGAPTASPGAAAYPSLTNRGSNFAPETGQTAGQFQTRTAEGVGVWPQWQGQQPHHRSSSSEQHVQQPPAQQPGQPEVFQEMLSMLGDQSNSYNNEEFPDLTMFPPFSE

B1: LexAMOP2 (other)
chain: MKALTARQQEVFDLIRDHISQTGMPPTRAEIAQRLGFRSPNAAEEHLKALARKGVIEIVSGASRGIRLLQEEEEGLPLVGRVAAGEPLLAQQHIEGHYQVDPSLFKPNADFLLRVSGMSMKDIGIMDGDLLAVHKTQDVRNGQVVVARIDDEVTVKRLKKQGNKVELLPENSEFKPIVVDLRQQSFTIEGLAVGVIRNGDWLMTADKEKKRSSSERRKEKSRDAARCRRSKETEVFYELAHELPLPHSVSSHLDKASIMRLAISFLRTHKLLSSVCSENESEAEADQQMDNLYLKALEGFIAVVTQDGDMIFLSENISKFMGLTQVELTGHSIFDFTHPCDHEEIRENLSLKNGSGFGKKSKDMSTERDFFMRMKCTVTNRGRTVNLKSATWKVLHCTGQVKVYNNCPPHNSLCGYKEPLLSCLIIMCEPIQHPSHMDIPLDSKTFLSRHSMDMKFTYCDDRITELIGYHPEELLGRSAYEFYHALDSENMTKSHQNLCTKGQVVSGQYRMLAKHGGYVWLETQGTVIYNPRNLQPQCIMCVNYVLSEIEKNDVVFSMDQTE
notes: range 1-202; Yeast two-hybrid bait; also called LexAbHLH-PAS fusion of HIF2α; PL857
[1]
  fold above background (lacZ reporter activity): 28 fold
[2]
  binding result: no binding
